Assay results published in paper PMC3572064.
Read-outs that look alike come from different tables or passages of the source. No constants are given. Whether binding was seen depends on the method and setting. For part of these data: In cells and extracts the contact can be indirect. Some results given as binding are weak or reduced against the parent protein; the word gives no strength. For part of these data: Tags and fused reporters may be left off the sequences shown.

The chains behind the UniProt entries cited, without tags or fusion partners. Where a name states a change or a piece, a line headed by the entry shows the natural chain unless it says otherwise.
UniProt P60766: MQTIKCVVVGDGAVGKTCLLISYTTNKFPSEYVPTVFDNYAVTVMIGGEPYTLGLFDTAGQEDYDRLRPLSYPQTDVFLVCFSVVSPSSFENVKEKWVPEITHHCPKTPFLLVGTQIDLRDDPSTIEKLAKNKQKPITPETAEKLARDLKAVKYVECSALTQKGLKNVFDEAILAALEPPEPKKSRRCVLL
UniProt Q9CQE7: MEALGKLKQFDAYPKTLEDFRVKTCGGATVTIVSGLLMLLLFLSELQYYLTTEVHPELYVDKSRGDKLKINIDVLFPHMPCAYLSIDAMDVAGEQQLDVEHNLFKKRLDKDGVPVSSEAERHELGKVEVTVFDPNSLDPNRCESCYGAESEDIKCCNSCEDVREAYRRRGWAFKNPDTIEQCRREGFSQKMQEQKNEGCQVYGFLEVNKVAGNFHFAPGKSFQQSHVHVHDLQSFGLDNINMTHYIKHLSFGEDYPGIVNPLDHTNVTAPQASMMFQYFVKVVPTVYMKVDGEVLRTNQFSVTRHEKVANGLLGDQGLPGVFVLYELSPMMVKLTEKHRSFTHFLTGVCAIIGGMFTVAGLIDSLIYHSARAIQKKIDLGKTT
UniProt A2AF53: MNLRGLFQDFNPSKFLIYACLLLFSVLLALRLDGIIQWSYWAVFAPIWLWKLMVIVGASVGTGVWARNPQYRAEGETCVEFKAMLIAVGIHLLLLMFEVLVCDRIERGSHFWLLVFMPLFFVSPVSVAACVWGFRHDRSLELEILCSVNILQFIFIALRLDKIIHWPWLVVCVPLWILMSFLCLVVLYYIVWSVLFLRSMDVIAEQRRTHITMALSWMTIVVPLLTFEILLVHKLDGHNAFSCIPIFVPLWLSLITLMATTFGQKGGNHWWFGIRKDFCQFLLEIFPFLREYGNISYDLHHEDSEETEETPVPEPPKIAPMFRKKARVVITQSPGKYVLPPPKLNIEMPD
UniProt P84096: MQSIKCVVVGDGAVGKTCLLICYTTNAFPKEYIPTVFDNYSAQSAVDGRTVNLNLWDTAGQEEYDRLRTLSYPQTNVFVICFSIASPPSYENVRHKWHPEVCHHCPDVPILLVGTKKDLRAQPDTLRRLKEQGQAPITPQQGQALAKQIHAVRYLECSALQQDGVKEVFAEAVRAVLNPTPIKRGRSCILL
UniProt P70182: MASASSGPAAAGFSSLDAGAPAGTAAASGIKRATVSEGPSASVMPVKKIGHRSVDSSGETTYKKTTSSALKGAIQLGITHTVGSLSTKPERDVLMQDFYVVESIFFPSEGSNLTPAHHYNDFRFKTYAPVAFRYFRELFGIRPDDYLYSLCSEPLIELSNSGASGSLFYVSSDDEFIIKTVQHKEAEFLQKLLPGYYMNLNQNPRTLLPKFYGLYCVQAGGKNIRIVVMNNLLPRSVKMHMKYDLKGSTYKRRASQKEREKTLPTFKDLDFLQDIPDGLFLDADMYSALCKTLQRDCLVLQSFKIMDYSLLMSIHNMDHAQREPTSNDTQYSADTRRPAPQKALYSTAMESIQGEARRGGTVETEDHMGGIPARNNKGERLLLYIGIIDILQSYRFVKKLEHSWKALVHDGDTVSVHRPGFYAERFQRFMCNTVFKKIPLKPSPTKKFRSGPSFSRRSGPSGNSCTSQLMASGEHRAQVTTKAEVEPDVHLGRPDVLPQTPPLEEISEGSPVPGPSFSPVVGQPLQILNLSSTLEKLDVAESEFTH
UniProt Q62048: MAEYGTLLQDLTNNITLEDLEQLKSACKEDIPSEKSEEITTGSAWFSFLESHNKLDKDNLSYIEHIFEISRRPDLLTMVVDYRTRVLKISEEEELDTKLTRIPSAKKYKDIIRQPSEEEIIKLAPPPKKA

Columns and labels:
[1] = biological target: TRPML1-Cub-LexA-VP16 (mouse) (UniProt Q99J21); experiment: two-hybrid; split-ubiquitin yeast two-hybrid, directed test: TRPML1-Cub-LexA-VP16 with NubG or NubI fusions in NMY51; growth on SD -leu -trp -ade -his +1 mM 3-AT at 30 C, scored over four days
[2] = biological target: TRPML1-Cub-LexA-VP16 (mouse) (UniProt Q99J21); experiment: two-hybrid; split-ubiquitin yeast two-hybrid library screens: TRPML1-Cub-LexA-VP16 against mouse heart X-NubG and mouse NubG-X cDNA libraries; SD -leu -trp -ade -his +1-5 mM 3-AT; hits confirmed by retransformation
[3] = biological target: GFP-TRPML1 (murine), expressed in HeLa cells (mouse) (UniProt Q99J21); experiment: co-IP; HeLa cells co-transfected with GFP or GFP-TRPML1 and a V5-fused candidate; anti-GFP beads, anti-V5 Western; absence of Ca2+; strength graded by film exposure time
[4] = biological target: GFP-TRPML1 (murine), expressed in HeLa cells (mouse) (UniProt Q99J21); experiment: as above; remark: listed apart in the source
[5] = biological target: GFP-TRPML1 (mouse), stably expressed in RAW264.7 macrophages (mouse) (UniProt Q99J21); experiment: co-IP; anti-GFP beads on lysates of RAW264.7 clones stably expressing GFP-TRPML1 or Derlin-1-GFP; Western for endogenous proteins; absence of Ca2+
[6] = biological target: T1, Derlin-1-GFP (UniProt Q99J56); experiment: as above
T1 sequence: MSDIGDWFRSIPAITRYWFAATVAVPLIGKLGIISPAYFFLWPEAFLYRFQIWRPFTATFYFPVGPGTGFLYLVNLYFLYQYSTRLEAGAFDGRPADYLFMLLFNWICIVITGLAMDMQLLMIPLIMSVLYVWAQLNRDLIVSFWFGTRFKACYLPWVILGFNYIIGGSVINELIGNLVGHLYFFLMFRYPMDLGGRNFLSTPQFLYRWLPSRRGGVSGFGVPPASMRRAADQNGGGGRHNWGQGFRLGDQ

## NubG-Cdc42 (from UniProt P60766 1-191)
[1]
  binding: binds

## NubG-ERGIC (from UniProt Q9CQE7 1-383)
[1]
  binding: binds

## NubG-NP9 (from UniProt A2AF53 1-350)
[1]
  binding: binds

## NubG-RhoG (from UniProt P84096 1-191)
[1]
  binding: no binding

## P5KT1(BAA13031), truncated form of the first 366 amino acids, library clone of the SU-YTH screen (from UniProt P70182 1-366) (domain or fragment)
[2]
  binding: binds

## V5-Cdc42 (from UniProt P60766 1-191)
[3]
  binding: binds weakly

## V5-ERGIC (from UniProt Q9CQE7 1-383)
[3]
  binding: binds

## V5-NP9 (from UniProt A2AF53 1-350)
[3]
  binding: binds

## V5-P5KT1(BAA13031) (from UniProt P70182 1-546)
[3]
  binding: no binding

## V5-PEA-15 (from UniProt Q62048 1-130)
[3]
  binding: no binding

## V5-RhoG (from UniProt P84096 1-191)
[3]
  binding: no binding

B1: V5-STOML1 (protein, UniProt Q8CI66 1-399)
chain: MLGRSGYRALPLGDFDRFQQSSFGFLGSQKGCLSPEPGSVGPGADAPESWPSCLCHGLVSVLGFLLLLLTFPISGWFALKIVPTYERMIVFRLGRIRNPQGPGMVLLLPFIDSFQRVDLRTRAFNVPPCKLASKDGAVLSVGADVQFRIWDPVLSVMAVKDLNTATRMTAHNAMTKALLRRPLQEIQMEKLKIGDQLLLEINDVTRAWGLEVDRVELAVEAVLQPPQDSLTVPSLDSTLQQLALHLLGGSMNSAVGRVPSPGPDTLEMINEVEPPASLAGAGAEPSPKQPVAEGLLTALQPFLSEALVSQVGACYQFNVILPSGTQSIYFLDLTTGQGRVGHGEPDGIPDVVVEMAEADLQALLSKELRPLGAYMSGRLKVKGDLAVVMKLEAVLKALK
[4]
  binding: binds

B2: NubG-BAE30441 (protein, UniProt Q91VC9 1-346)
chain: MLAARLVCLRTLPSRVFQPTFITKASPLVKNSITKNQWLVTPSREYATKTRIRTHRGKTGQELKEAALEPSMEKIFKIDQMGRWFVAGGAAVGLGALCYYGLGMSNEIGAIEKAVIWPQYVKDRIHSTYMYLAGSIGLTALSALAVARTPALMNFMMTGSWVTIGATFAAMIGAGMLVHSISYEQSPGPKHLAWMLHSGVMGAVVAPLTILGGPLLLRAAWYTAGIVGGLSTVAMCAPSEKFLNMGAPLGVGLGLVFASSLGSMFLPPTSVAGATLYSVAMYGGLVLFSMFLLYDTQKVIKRAEITPMYGAQKYDPINSMLTIYMDTLNIFMRVATMLATGSNRKK
[1]
  binding: binds

B3: endogenous mouse STOML1 (protein, UniProt Q8CI66 1-399)
chain: MLGRSGYRALPLGDFDRFQQSSFGFLGSQKGCLSPEPGSVGPGADAPESWPSCLCHGLVSVLGFLLLLLTFPISGWFALKIVPTYERMIVFRLGRIRNPQGPGMVLLLPFIDSFQRVDLRTRAFNVPPCKLASKDGAVLSVGADVQFRIWDPVLSVMAVKDLNTATRMTAHNAMTKALLRRPLQEIQMEKLKIGDQLLLEINDVTRAWGLEVDRVELAVEAVLQPPQDSLTVPSLDSTLQQLALHLLGGSMNSAVGRVPSPGPDTLEMINEVEPPASLAGAGAEPSPKQPVAEGLLTALQPFLSEALVSQVGACYQFNVILPSGTQSIYFLDLTTGQGRVGHGEPDGIPDVVVEMAEADLQALLSKELRPLGAYMSGRLKVKGDLAVVMKLEAVLKALK
[5]
  binding: binds

B4: Sorting Nexin 2 (protein, UniProt Q9CWK8 1-519)
chain: MAAEREPPPLGDVKPTDFEELEDGEDLFTSTVSTLESSPSSPEPASLPAEDISANSNGSKPVEVVLDDDREDLFAEATEEVSLDSPERELILSSEPSPAVTPVTPTTLIAPRIESKSISAPVIFDRSRDEIEEEANGDIFDIEIGVSDPEKVGDGMNAYMAYRVTTKTSLSMFSKSEFSVKRRFSDFLGLHSKLASKYLHVGYIVPPAPEKSIVGMTKVKVGKEDSSSTEFVEKRRAALERYLQRTVKHPTLLQDPDLRQFLESSELPRAVNTQALSGAGILRMVNKAADAVNKMTIKMNESDAWFEEKQQQFENLDQQLRKLHASVEALVCHRKELSANTAAFAKSAAMLGNSEDHTALSRALSQLAEVEEKIDQLHQEQAFADFYMFSELLSDYIRLIAAVKGVFDHRMKCWQKWEDAQITLLKKRETEAKMMVANKPDKIQQAKNEIREWEAKVQQGERDFEQISKTIRKEVGRFEKERVKDFKAVIIKYLESLVQTQQQLIKYWEAFLPEAKAIA
[6]
  binding: binds

B5: Destrin (protein, UniProt Q9R0P5 1-165)
chain: MASGVQVADEVCRIFYDMKVRKCSTPEEIKKRKKAVIFCLSADKKCIVVEEGKEILVGDVGATITDPFKHFVGMLPEKDCRYALYDASFETKESRKEELMFFLWAPEQAPLKSKMIYASSKDAIKKKFPGIKHEYQANGPEDLNRTCIAEKLGGSLIVAFEGSPV
[6]
  binding: no binding
[5]
  binding: no binding

B6: V5-BAE30441 (protein, UniProt Q91VC9 46-346)
chain: YATKTRIRTHRGKTGQELKEAALEPSMEKIFKIDQMGRWFVAGGAAVGLGALCYYGLGMSNEIGAIEKAVIWPQYVKDRIHSTYMYLAGSIGLTALSALAVARTPALMNFMMTGSWVTIGATFAAMIGAGMLVHSISYEQSPGPKHLAWMLHSGVMGAVVAPLTILGGPLLLRAAWYTAGIVGGLSTVAMCAPSEKFLNMGAPLGVGLGLVFASSLGSMFLPPTSVAGATLYSVAMYGGLVLFSMFLLYDTQKVIKRAEITPMYGAQKYDPINSMLTIYMDTLNIFMRVATMLATGSNRKK
[4]
  binding: no binding
